Source: the supplement of paper PMC11876631
± gives the standard deviation of the averaged measurements. Laboratory Escherichia coli strains with one amino-acid change in an essential protein, pooled on minimal glucose agar with carbenicillin or gentamicin at twice the control MIC (plus kanamycin and chloramphenicol for the plasmids), 48 h. Fold change of barcode share against drug-free plates; higher = less susceptible. Active = above 20 in both replicates (the paper's putatively resistant). '<' = one read or none on drug, '>' = one read or none on a drug-free plate. Shares are relative, so most strains fall below 1 when a few take over. Listed are strains with at least 15 reads on both drug-free plates, and hits; most hits rest on fewer reference reads. Replicate rank correlation about 0.5. Edits are read from barcodes.

Target: Escherichia coli (laboratory strain)
Assay: barcode share on antibiotic plates over drug-free plates; higher = less susceptible
Procedure: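 A pool of E. coli strains, each edited to carry one amino-acid change in an essential protein, was grown for 48 h on minimal glucose agar with or without antibiotic; strain barcodes were sequenced; mean of two replicates.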

[1] = antibiotic: carbenicillin, 2× MIC (3.1 µg/mL)
[2] = antibiotic: gentamicin, 2× MIC (MIC 0.45 µg/mL)

| Protein | fold change of barcode share [1] | fold change of barcode share [2] |
| --- | --- | --- |
| proA L273Q (protein) MLEQMGIAAKQASYKLAQLSSREKNRVLEKIADELEAQSEIILNANAQDVADARANGLSEAMLDRLALTPARLKGIADDVRQVCNLADPVGQVIDGGVLDSGLRLERRRVPLGVIGVIYEARPNVTVDVASLCLKTGNAVILRGGKETCRTNAATVAVIQDALKSCGLPAGAVQAIDNPDRALVSEMLRMDKYIDMLIPRGGAGLHKLCREQSTIPVITGGIGVCHIYVDESVEIAEALKVIVNAKTQRPSTCNTVETLLVNKNIADSFLPAQSKQMAESGVTLHADAAALAQLQAGPAKVVAVKAEEYDDEFLSLDLNVKIVSDLDDAIAHIREHGTQHSDAILTRDMRNAQRFVNEVDSSAVYVNASTRFTDGGQFGLGAEVAVSTQKLHARGPMGLEALTTYKWIGIGDYTIRA | 0.603 ± 0.06 | 0.0244 ± 0.017 |
| proA V256Q (protein) MLEQMGIAAKQASYKLAQLSSREKNRVLEKIADELEAQSEIILNANAQDVADARANGLSEAMLDRLALTPARLKGIADDVRQVCNLADPVGQVIDGGVLDSGLRLERRRVPLGVIGVIYEARPNVTVDVASLCLKTGNAVILRGGKETCRTNAATVAVIQDALKSCGLPAGAVQAIDNPDRALVSEMLRMDKYIDMLIPRGGAGLHKLCREQSTIPVITGGIGVCHIYVDESVEIAEALKVIVNAKTQRPSTCNTQETLLVNKNIADSFLPALSKQMAESGVTLHADAAALAQLQAGPAKVVAVKAEEYDDEFLSLDLNVKIVSDLDDAIAHIREHGTQHSDAILTRDMRNAQRFVNEVDSSAVYVNASTRFTDGGQFGLGAEVAVSTQKLHARGPMGLEALTTYKWIGIGDYTIRA | 0.665 ± 0.072 | 0.0267 ± 0.023 |
| proA V256P (protein) MLEQMGIAAKQASYKLAQLSSREKNRVLEKIADELEAQSEIILNANAQDVADARANGLSEAMLDRLALTPARLKGIADDVRQVCNLADPVGQVIDGGVLDSGLRLERRRVPLGVIGVIYEARPNVTVDVASLCLKTGNAVILRGGKETCRTNAATVAVIQDALKSCGLPAGAVQAIDNPDRALVSEMLRMDKYIDMLIPRGGAGLHKLCREQSTIPVITGGIGVCHIYVDESVEIAEALKVIVNAKTQRPSTCNTPETLLVNKNIADSFLPALSKQMAESGVTLHADAAALAQLQAGPAKVVAVKAEEYDDEFLSLDLNVKIVSDLDDAIAHIREHGTQHSDAILTRDMRNAQRFVNEVDSSAVYVNASTRFTDGGQFGLGAEVAVSTQKLHARGPMGLEALTTYKWIGIGDYTIRA | 1.27 ± 0.62 | < 0.00381 |
| proA M277A (protein) MLEQMGIAAKQASYKLAQLSSREKNRVLEKIADELEAQSEIILNANAQDVADARANGLSEAMLDRLALTPARLKGIADDVRQVCNLADPVGQVIDGGVLDSGLRLERRRVPLGVIGVIYEARPNVTVDVASLCLKTGNAVILRGGKETCRTNAATVAVIQDALKSCGLPAGAVQAIDNPDRALVSEMLRMDKYIDMLIPRGGAGLHKLCREQSTIPVITGGIGVCHIYVDESVEIAEALKVIVNAKTQRPSTCNTVETLLVNKNIADSFLPALSKQAAESGVTLHADAAALAQLQAGPAKVVAVKAEEYDDEFLSLDLNVKIVSDLDDAIAHIREHGTQHSDAILTRDMRNAQRFVNEVDSSAVYVNASTRFTDGGQFGLGAEVAVSTQKLHARGPMGLEALTTYKWIGIGDYTIRA | 0.341 ± 0.008 | < 0.00428 |
| proA M277W (protein) MLEQMGIAAKQASYKLAQLSSREKNRVLEKIADELEAQSEIILNANAQDVADARANGLSEAMLDRLALTPARLKGIADDVRQVCNLADPVGQVIDGGVLDSGLRLERRRVPLGVIGVIYEARPNVTVDVASLCLKTGNAVILRGGKETCRTNAATVAVIQDALKSCGLPAGAVQAIDNPDRALVSEMLRMDKYIDMLIPRGGAGLHKLCREQSTIPVITGGIGVCHIYVDESVEIAEALKVIVNAKTQRPSTCNTVETLLVNKNIADSFLPALSKQWAESGVTLHADAAALAQLQAGPAKVVAVKAEEYDDEFLSLDLNVKIVSDLDDAIAHIREHGTQHSDAILTRDMRNAQRFVNEVDSSAVYVNASTRFTDGGQFGLGAEVAVSTQKLHARGPMGLEALTTYKWIGIGDYTIRA | 0.473 ± 0.15 | < 0.00647 |
| proA M277Q (protein) MLEQMGIAAKQASYKLAQLSSREKNRVLEKIADELEAQSEIILNANAQDVADARANGLSEAMLDRLALTPARLKGIADDVRQVCNLADPVGQVIDGGVLDSGLRLERRRVPLGVIGVIYEARPNVTVDVASLCLKTGNAVILRGGKETCRTNAATVAVIQDALKSCGLPAGAVQAIDNPDRALVSEMLRMDKYIDMLIPRGGAGLHKLCREQSTIPVITGGIGVCHIYVDESVEIAEALKVIVNAKTQRPSTCNTVETLLVNKNIADSFLPALSKQQAESGVTLHADAAALAQLQAGPAKVVAVKAEEYDDEFLSLDLNVKIVSDLDDAIAHIREHGTQHSDAILTRDMRNAQRFVNEVDSSAVYVNASTRFTDGGQFGLGAEVAVSTQKLHARGPMGLEALTTYKWIGIGDYTIRA | 0.377 ± 0.074 | < 0.00461 |
| proA M277D (protein) MLEQMGIAAKQASYKLAQLSSREKNRVLEKIADELEAQSEIILNANAQDVADARANGLSEAMLDRLALTPARLKGIADDVRQVCNLADPVGQVIDGGVLDSGLRLERRRVPLGVIGVIYEARPNVTVDVASLCLKTGNAVILRGGKETCRTNAATVAVIQDALKSCGLPAGAVQAIDNPDRALVSEMLRMDKYIDMLIPRGGAGLHKLCREQSTIPVITGGIGVCHIYVDESVEIAEALKVIVNAKTQRPSTCNTVETLLVNKNIADSFLPALSKQDAESGVTLHADAAALAQLQAGPAKVVAVKAEEYDDEFLSLDLNVKIVSDLDDAIAHIREHGTQHSDAILTRDMRNAQRFVNEVDSSAVYVNASTRFTDGGQFGLGAEVAVSTQKLHARGPMGLEALTTYKWIGIGDYTIRA | 0.338 ± 0.17 | 0.0138 ± 0.005 |
| proA I333A (protein) MLEQMGIAAKQASYKLAQLSSREKNRVLEKIADELEAQSEIILNANAQDVADARANGLSEAMLDRLALTPARLKGIADDVRQVCNLADPVGQVIDGGVLDSGLRLERRRVPLGVIGVIYEARPNVTVDVASLCLKTGNAVILRGGKETCRTNAATVAVIQDALKSCGLPAGAVQAIDNPDRALVSEMLRMDKYIDMLIPRGGAGLHKLCREQSTIPVITGGIGVCHIYVDESVEIAEALKVIVNAKTQRPSTCNTVETLLVNKNIADSFLPALSKQMAESGVTLHADAAALAQLQAGPAKVVAVKAEEYDDEFLSLDLNVKIVSDLDDAIAHAREHGTQHSDAILTRDMRNAQRFVNEVDSSAVYVNASTRFTDGGQFGLGAEVAVSTQKLHARGPMGLEALTTYKWIGIGDYTIRA | 0.37 ± 0.11 | 0.00505 ± 8.2e-05 |
| proA I333W (protein) MLEQMGIAAKQASYKLAQLSSREKNRVLEKIADELEAQSEIILNANAQDVADARANGLSEAMLDRLALTPARLKGIADDVRQVCNLADPVGQVIDGGVLDSGLRLERRRVPLGVIGVIYEARPNVTVDVASLCLKTGNAVILRGGKETCRTNAATVAVIQDALKSCGLPAGAVQAIDNPDRALVSEMLRMDKYIDMLIPRGGAGLHKLCREQSTIPVITGGIGVCHIYVDESVEIAEALKVIVNAKTQRPSTCNTVETLLVNKNIADSFLPALSKQMAESGVTLHADAAALAQLQAGPAKVVAVKAEEYDDEFLSLDLNVKIVSDLDDAIAHWREHGTQHSDAILTRDMRNAQRFVNEVDSSAVYVNASTRFTDGGQFGLGAEVAVSTQKLHARGPMGLEALTTYKWIGIGDYTIRA | 1.91 ± 0.5 | 0.0138 ± 0.0061 |
| proA I333Q (protein) MLEQMGIAAKQASYKLAQLSSREKNRVLEKIADELEAQSEIILNANAQDVADARANGLSEAMLDRLALTPARLKGIADDVRQVCNLADPVGQVIDGGVLDSGLRLERRRVPLGVIGVIYEARPNVTVDVASLCLKTGNAVILRGGKETCRTNAATVAVIQDALKSCGLPAGAVQAIDNPDRALVSEMLRMDKYIDMLIPRGGAGLHKLCREQSTIPVITGGIGVCHIYVDESVEIAEALKVIVNAKTQRPSTCNTVETLLVNKNIADSFLPALSKQMAESGVTLHADAAALAQLQAGPAKVVAVKAEEYDDEFLSLDLNVKIVSDLDDAIAHQREHGTQHSDAILTRDMRNAQRFVNEVDSSAVYVNASTRFTDGGQFGLGAEVAVSTQKLHARGPMGLEALTTYKWIGIGDYTIRA | 0.507 ± 0.22 | 0.0101 ± 0.001 |
| proA L402A (protein) MLEQMGIAAKQASYKLAQLSSREKNRVLEKIADELEAQSEIILNANAQDVADARANGLSEAMLDRLALTPARLKGIADDVRQVCNLADPVGQVIDGGVLDSGLRLERRRVPLGVIGVIYEARPNVTVDVASLCLKTGNAVILRGGKETCRTNAATVAVIQDALKSCGLPAGAVQAIDNPDRALVSEMLRMDKYIDMLIPRGGAGLHKLCREQSTIPVITGGIGVCHIYVDESVEIAEALKVIVNAKTQRPSTCNTVETLLVNKNIADSFLPALSKQMAESGVTLHADAAALAQLQAGPAKVVAVKAEEYDDEFLSLDLNVKIVSDLDDAIAHIREHGTQHSDAILTRDMRNAQRFVNEVDSSAVYVNASTRFTDGGQFGLGAEVAVSTQKLHARGPMGLEAATTYKWIGIGDYTIRA | 0.338 ± 0.016 | 0.0052 ± 0.0045 |
| proA L402W (protein) MLEQMGIAAKQASYKLAQLSSREKNRVLEKIADELEAQSEIILNANAQDVADARANGLSEAMLDRLALTPARLKGIADDVRQVCNLADPVGQVIDGGVLDSGLRLERRRVPLGVIGVIYEARPNVTVDVASLCLKTGNAVILRGGKETCRTNAATVAVIQDALKSCGLPAGAVQAIDNPDRALVSEMLRMDKYIDMLIPRGGAGLHKLCREQSTIPVITGGIGVCHIYVDESVEIAEALKVIVNAKTQRPSTCNTVETLLVNKNIADSFLPALSKQMAESGVTLHADAAALAQLQAGPAKVVAVKAEEYDDEFLSLDLNVKIVSDLDDAIAHIREHGTQHSDAILTRDMRNAQRFVNEVDSSAVYVNASTRFTDGGQFGLGAEVAVSTQKLHARGPMGLEAWTTYKWIGIGDYTIRA | > 26.2 [active] |  |
